According to article PMC4336329 (PLoS ONE, 2015):
Screen size: about 310,000 compounds; about 2,200 (0.71%) showed an effect of 50% or more. The effect is printed as a negative number. Some of the results follow.

Biological target: human ether-à-go-go-related gene (hERG) potassium channel (human, UniProt Q12809)
Test: primary screen, population patch clamp on CHO cells stably expressing hERG

Chain of human ether-à-go-go-related gene (hERG) potassium channel (Q12809 whole entry, looked up): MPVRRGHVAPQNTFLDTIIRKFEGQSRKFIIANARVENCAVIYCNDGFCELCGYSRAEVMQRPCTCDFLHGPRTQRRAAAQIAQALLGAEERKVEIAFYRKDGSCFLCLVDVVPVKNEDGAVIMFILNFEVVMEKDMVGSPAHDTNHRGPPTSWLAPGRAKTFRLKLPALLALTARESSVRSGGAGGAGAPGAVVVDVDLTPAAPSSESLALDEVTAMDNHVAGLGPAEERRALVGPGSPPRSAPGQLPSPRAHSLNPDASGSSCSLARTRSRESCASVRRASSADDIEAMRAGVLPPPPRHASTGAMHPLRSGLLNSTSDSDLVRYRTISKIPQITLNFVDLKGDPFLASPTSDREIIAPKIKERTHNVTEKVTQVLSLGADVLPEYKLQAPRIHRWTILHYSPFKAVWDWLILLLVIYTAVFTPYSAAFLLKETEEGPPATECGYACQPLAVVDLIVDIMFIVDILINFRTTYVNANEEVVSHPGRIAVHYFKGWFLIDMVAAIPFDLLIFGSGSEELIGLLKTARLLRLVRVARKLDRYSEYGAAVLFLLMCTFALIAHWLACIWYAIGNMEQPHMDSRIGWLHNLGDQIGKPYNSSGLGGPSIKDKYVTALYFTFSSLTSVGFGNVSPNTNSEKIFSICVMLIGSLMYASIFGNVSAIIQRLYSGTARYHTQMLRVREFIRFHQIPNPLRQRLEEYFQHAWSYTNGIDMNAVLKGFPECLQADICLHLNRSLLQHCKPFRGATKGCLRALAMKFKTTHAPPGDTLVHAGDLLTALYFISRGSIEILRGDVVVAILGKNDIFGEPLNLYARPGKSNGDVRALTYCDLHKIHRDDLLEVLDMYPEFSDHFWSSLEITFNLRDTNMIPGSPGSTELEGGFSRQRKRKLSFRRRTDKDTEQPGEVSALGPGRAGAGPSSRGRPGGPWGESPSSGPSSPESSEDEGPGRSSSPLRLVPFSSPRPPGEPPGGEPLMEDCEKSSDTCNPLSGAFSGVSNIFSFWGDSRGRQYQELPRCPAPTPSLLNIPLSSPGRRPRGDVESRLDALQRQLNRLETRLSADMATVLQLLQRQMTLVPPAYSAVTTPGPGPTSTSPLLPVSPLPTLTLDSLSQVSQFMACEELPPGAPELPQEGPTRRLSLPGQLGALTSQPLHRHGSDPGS

Row | Compound | hERG current change (%, negative = inhibition) at 1uM [%]
1 | O=S(=O)(NN=C1CCCCCC1)c1ccccc1 | 4.49
2 | C=CCn1c(SCC(=O)c2ccc(O)c(O)c2)nnc1-c1ccccc1OC | 4.28
3 | COCCCNC(=O)CN1C(=O)COc2ccc(S(=O)(=O)N3CCCCCC3)cc21 | 15.6
4 | O=C(COC(=O)Cc1cccc(C(F)(F)F)c1)NC1CC1 | 10.7
5 | COc1ccc2nc(-c3ccccc3)[nH]c2c1 | 11.2
6 | Cc1cccc(Nc2ccccc2C(=O)OCC(=O)NCc2ccco2)c1C | 1.37
7 | O=S(=O)(N/N=C\C=C\c1ccccc1)c1ccc(Cl)cc1 | -7.42
8 | CCOC(=O)CCc1c(C)nc2c(c(C)nn2-c2ccccc2)c1C | 6.45
9 | CC(C)Cn1c(N)c(C(=O)COC(=O)/C=C/c2ccccc2)c(=O)n(C)c1=O | 6.62
10 | CCC(=O)c1ccc(OCC(O)CNCCc2ccc(Cl)cc2)cc1 (centres unmarked) | -69.9
11 | O=C(Nc1cc(Cl)ccc1Cl)c1ccc(OC(=O)c2ccco2)cc1 | 2.48
12 | COc1cccc2sc(NC(=O)c3ccc(Br)s3)nc12 | 12.5
13 | CCn1c(SCC(=O)N2CCCc3ccccc32)nc2ccccc2c1=O | 7.83
14 | COc1cc(NC(=O)CSc2ccc(-c3ccco3)nn2)cc(OC)c1 | 11.3
15 | CCNc1ccccc1CP(=O)(c1ccccc1)c1ccccc1O (centres unmarked) | 22.1
16 | O=c1oc2ccccc2c(CNc2ccccc2)c1[N+](=O)[O-] | 11.1
17 | CC(C)C[C@H](NC(=O)N1CCn2c1nc1ccccc12)C(=O)N[C@@H](Cc1ccccc1)C(=O)O | -3.94
18 | COc1ccccc1N1CCN(S(=O)(=O)CCNC(=O)C2CC(=O)N(c3ccccc3)C2)CC1 (centres unmarked) | 11.1
19 | CCOC(=O)c1cc(NC(=O)N2CCCc3ccccc32)c(C)nc1C | 9.74
20 | Cc1n[nH]c(C)c1Cc1ccc(C(=O)O)cc1 | 11.4

Row | Compound | hERG current change (%, negative = inhibition) at 1uM [%]
21 | Cc1cc(C)n2nc(SCC(=O)N(C)Cc3ccccc3)nc2n1 | 8.27
22 | Cc1ccc(S(=O)(=O)n2ccc(OC(=O)c3cccs3)n2)cc1 | 13.1
23 | CC(=O)Nc1ccc(S(=O)(=O)NCc2ccc(C(=O)NCc3ccc(Cl)cc3)cc2)cc1 | 13
24 | Cc1ccc(S(=O)(=O)NCc2c(Cl)cccc2Oc2ccccc2)cc1 | 12.7
25 | Cc1c(CN2CCCCC2)c(O)n(CCO)c(=O)c1C#N | 11.3
26 | Cc1cc(Cl)ccc1OCC(=O)Nc1ccc2oc(=O)ccc2c1 | 5.14
27 | COc1ccc(NC(=O)CS(=O)CC(=O)NCc2cccc(C(F)(F)F)c2)cc1 (centres unmarked) | 7.17
28 | Cc1nc2cc(C(F)(F)F)ccc2n1CCNc1nc(-c2cc(Cl)c(N)c(Cl)c2)cs1 | 9.16
29 | Cc1ccc2oc(=O)c3cc(C(=O)Nc4cc(-c5cccc(F)c5)no4)sc3c2c1 | 5.77
30 | C(=N\c1nc2ccccc2n1CCN1CCCCC1)/c1cccs1 | -3.86
31 | CCOc1ccc(S(=O)(=O)n2cnc3ccccc32)cc1 | 14.3
32 | O=C(O)CCCNC(=O)c1cncc(Br)c1 | 14.7
33 | O=C(NCc1cccs1)C1CC(=O)N(c2ccccc2)C1 (centres unmarked) | -3.14
34 | O=C(NC12CC3CC(CC(C3)C1)C2)N1CCCC(CO)C1 (centres unmarked) | 12.7
35 | CSc1nc2c(c(=O)[nH]c(=O)n2C)n1Cc1ccc(Cl)cc1 | 15.4
36 | Cc1ccc(/C=C2\C(=O)NC(=S)N(c3cccc(F)c3)C2=O)o1 | 17.2
37 | CN(CC(=O)Nc1ccccc1Cl)C(=O)C1CCN(C(=O)c2ccc(F)cc2)CC1 | 0.838
38 | O=C(COC(=O)CCCOc1ccccc1)NC1CCS(=O)(=O)C1 (centres unmarked) | -10.9
39 | COc1ccc(NCc2nnc(SCC(=O)Nc3ccccc3OC)o2)cc1 | 0.173
40 | O=C1CC(NCC2CCCO2)C(=O)N1c1ccc(F)cc1 (centres unmarked) | 1.73

Row | Compound | hERG current change (%, negative = inhibition) at 1uM [%]
41 | Cc1noc(/C=C/c2ccccn2)c1[N+](=O)[O-] | 15.9
42 | CCOC(=O)CNC(=O)CSc1nc(N)cc(N)n1 | 10.6
43 | O=C(CN1CCc2ccccc2C1)Nc1ccc(F)cc1F | -8.83
44 | CSc1ccccc1NC(=O)CN(C)C(=O)Cc1c(F)cccc1Cl | 15.1
45 | CCCc1n[nH]c(=S)n1Cc1ccco1 | 12.9
46 | COC(=O)CNS(=O)(=O)c1ccc(C)cc1 | 11.1
47 | O=C(N/N=C/c1cc(Cl)cc([N+](=O)[O-])c1O)c1cc(-c2ccccn2)nc2ccccc12 | 14.1
48 | O=C1C=C(c2ccccc2Oc2ccccc2)C[C@@H](c2ccc3c(c2)OCO3)C1 | 0.52
49 | CCOc1ccccc1C(=O)NCC(=O)N(C)Cc1ccccc1C | 8
50 | O=C(Nc1ccccc1C(=O)N1CCCC1)c1cccc(S(=O)(=O)N2CCCCC2)c1 | 0.273
51 | Clc1cccc(OCc2nc(-c3ccncc3)no2)c1 | 7.83
52 | Cc1nn(CC(=O)NC(=O)c2ccccc2)c(C)c1[N+](=O)[O-] | -8.83
53 | Cc1cc2cc(CNC(=O)NC3CCCCC3)ccc2[nH]1 | 8.06
54 | CC1CCCC(C)N1NC(=S)Nc1ccc(OC(F)F)cc1 (centres unmarked) | -36.5
55 | S=C(NCc1ccc2c(c1)OCO2)NC1CCN(Cc2ccccc2)CC1 | 15.9
56 | C/C(=N/NC(=O)c1ccc(C)s1)c1ccncc1 | 21.4
57 | O=C(CSc1n[nH]c(-c2ccccc2)n1)NC1CCCCC1 | 9.57
58 | CCc1cc2c(SCC(=O)Nc3cc(C)on3)ncnc2s1 | 2.09
59 | COc1ccc(C2NC(=S)NC(O)(C(F)(F)F)C2C(=O)c2cccs2)cc1 (centres unmarked) | 9.74
